Article PMC4336329 (PLoS ONE, 2015)
Screen size: about 310,000 compounds; about 2,200 (0.71%) showed an effect of 50% or more. The effect is printed as a negative number. Some of the results follow.

Each compound was assayed against human ether-à-go-go-related gene (hERG) potassium channel (human, UniProt Q12809) (assay: primary screen, population patch clamp on CHO cells stably expressing hERG).
Sequence of human ether-à-go-go-related gene (hERG) potassium channel (Q12809 whole entry, looked up): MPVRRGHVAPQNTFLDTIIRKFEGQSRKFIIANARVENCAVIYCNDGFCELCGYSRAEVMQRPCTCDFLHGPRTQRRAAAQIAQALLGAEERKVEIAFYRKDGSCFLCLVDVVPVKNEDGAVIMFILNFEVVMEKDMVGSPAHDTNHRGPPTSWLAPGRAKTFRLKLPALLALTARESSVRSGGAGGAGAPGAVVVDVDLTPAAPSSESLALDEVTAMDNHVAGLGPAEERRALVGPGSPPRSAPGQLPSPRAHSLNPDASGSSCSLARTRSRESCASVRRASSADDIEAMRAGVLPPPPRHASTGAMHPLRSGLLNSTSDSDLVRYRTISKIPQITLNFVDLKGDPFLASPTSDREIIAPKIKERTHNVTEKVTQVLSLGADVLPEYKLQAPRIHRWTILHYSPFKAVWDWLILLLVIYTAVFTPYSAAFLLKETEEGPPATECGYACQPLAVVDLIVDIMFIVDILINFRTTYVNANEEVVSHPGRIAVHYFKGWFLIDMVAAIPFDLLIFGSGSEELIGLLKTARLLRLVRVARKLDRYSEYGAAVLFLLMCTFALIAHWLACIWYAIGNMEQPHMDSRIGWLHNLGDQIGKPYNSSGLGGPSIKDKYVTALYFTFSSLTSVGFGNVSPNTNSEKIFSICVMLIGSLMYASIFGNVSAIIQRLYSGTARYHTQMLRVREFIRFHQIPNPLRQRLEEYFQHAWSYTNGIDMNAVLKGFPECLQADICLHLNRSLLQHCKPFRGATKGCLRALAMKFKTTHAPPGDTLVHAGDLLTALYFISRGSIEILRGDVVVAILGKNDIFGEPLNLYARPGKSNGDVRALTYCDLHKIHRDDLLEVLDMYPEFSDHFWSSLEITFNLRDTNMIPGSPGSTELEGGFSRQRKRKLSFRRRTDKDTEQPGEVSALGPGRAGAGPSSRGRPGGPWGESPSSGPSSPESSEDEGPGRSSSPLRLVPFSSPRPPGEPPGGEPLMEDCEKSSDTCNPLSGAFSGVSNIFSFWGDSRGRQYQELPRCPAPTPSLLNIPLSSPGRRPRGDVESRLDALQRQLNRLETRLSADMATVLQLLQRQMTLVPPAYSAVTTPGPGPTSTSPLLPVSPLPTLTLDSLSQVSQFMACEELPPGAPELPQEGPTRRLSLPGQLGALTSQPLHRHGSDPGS

Structure (SMILES)	hERG current change (%, negative = inhibition) at 1uM [%]
N#C/C(=C/c1ccc(Br)o1)C(N)=O	9.96
OC1(c2cccs2)CN(c2ccc(Cl)cc2)C2=[N+]1CCCS2.[Br-] (stereo not shown)	-16.2
COc1ccc(-n2nnc3c(SCC(=O)Nc4ccc5c(c4)OCCO5)ncnc32)cc1	2.74
COc1ccc(-c2nnc(SCC(=O)O)n2C)cc1OC	14.3
CCOc1ccc(C(=O)CC(NCc2cccs2)C(=O)O)cc1 (stereo not shown)	2.29
Nc1c(C(=O)Nc2ccc3c(c2)OCCO3)nnn1Cc1cccc(Cl)c1	0.624
CCC(CC)C(=O)Nc1cccc(C(=O)NCCc2ccc(S(N)(=O)=O)cc2)c1	12.7
O=C(COc1c(F)c(F)cc(F)c1F)NC(=O)NC1CCCC1	3.34
O=C(COC(=O)CNC(=O)c1ccccc1)Nc1nnc(-c2ccccc2)o1	-2.84
CCOC(=O)Cc1nnc2c(Nc3ccc(C)cc3)nc3nonc3n12	12.9
O=C(COC(=O)COc1ccccc1)Nc1ccc(Cl)cn1	13.1
O=C(c1cccc(-n2cccc2)c1)N1CCN(S(=O)(=O)c2ccc(F)cc2)CC1	8.64
CCC(C(=O)O)N1C(=O)/C(=C/c2cccn2C)SC1=S (stereo not shown)	15.2
Cc1cccc2cc(C#N)c(SCC(=O)NNC(=O)Cc3ccccc3)nc12	-6.63
CC(=O)Nc1ccc(NS(=O)(=O)c2ccc3c(c2)oc(=O)n3C)cc1	8.83
COCCOC(=O)c1c(NC(=O)CN2CCOCC2)sc(C(N)=O)c1C	9.13
Cc1cc(C(=O)N2CCCC(Nc3ccc(C(C)C)cc3)C2)nn1C (stereo not shown)	7.33
O=[N+]([O-])/C(N=Nc1ccccc1)=N\Nc1ccccc1	15
CCN(CC(=O)Nc1c(F)cccc1F)C(=O)C1CCN(C(=O)c2ccc(F)cc2)CC1	8.86
Cc1ccc(-n2c(O)c(/C=N/NC(=O)c3ccncc3)c(=O)[nH]c2=O)cc1	2.14
COc1ccc(CCN2CC(C(=O)O)CC2=O)cc1 (stereo not shown)	6.07
CCN(CC)c1ccc(NC(=O)COc2ccccc2C#N)cc1S(=O)(=O)Nc1ccc(OC)cc1	14.6
CC(=O)N1CCN(c2ccc(NC(=O)c3ccc([N+](=O)[O-])o3)cc2Cl)CC1	2.62
Cl.Fc1ccccc1COc1ccc(Br)cc1CNCC1CCCO1 (stereo not shown)	-8.9
CC(=O)Nc1ncc(Cc2ccc(Cl)cc2Cl)s1	8.67
CC(=O)c1ccc(NC(=O)CSc2ccc3nnc(-c4cccnc4)n3n2)cc1	8.3
Cc1[nH]c2ccccc2c1CCNCc1ccco1.Cl	15.5
CCn1c(COc2ccccc2C)nnc1SCC(=O)N1CCCCC1	3.26

Structure (SMILES)	hERG current change (%, negative = inhibition) at 1uM [%]
Cc1[nH]c2ccccc2c1/C=C/c1nc2ccccc2c(=O)n1-c1cccc([N+](=O)[O-])c1	8.08
COc1cc(C2C(C(=O)OC(C)C)=C(C)Nc3ncnn32)cc(OC)c1OC (stereo not shown)	-3.58
COc1ccc(Cl)cc1C(=O)NNC(=S)NC1CCCC1	-1.02
CNc1ccc(/C=C/C(=O)c2ccc(C)cc2)cc1[N+](=O)[O-]	5.9
CCn1c(=O)cc(SCC(=O)N2CCN(C)CC2)c2ccccc21	10.4
Brc1ccc(-c2cnc3n2CCCC3)cc1	-11.2
O=[N+]([O-])c1cccc(-n2cccc2/C=N/Nc2nc(N3CCCCC3)nc(N3CCCCC3)n2)c1	14.4
CC1CN(c2oc(-c3cccs3)nc2C#N)CC(C)O1 (stereo not shown)	4.32
CCOC(=O)C1CCN(C(=O)Cn2nc(C)n3nc(-c4ccc(CC)cc4)cc3c2=O)CC1	4.81
CC1CCN(C(=O)C2CCN(S(=O)(=O)c3ccc4c(c3)CC(C)N4C(=O)C3CC3)CC2)CC1 (stereo not shown)	7.03
O=C(O)CC(NC(=O)C1CCCCC1)c1ccc(OC2CCCC2)cc1 (stereo not shown)	7.89
CCOC(=O)c1c(C)c(C(=O)NCc2ccco2)c(C)n1Cc1ccccc1	3.4
O=C1CN(C(=O)COC(=O)CNS(=O)(=O)c2ccccc2)c2ccccc2N1	20.4
O=C(O)CCn1c(SCc2cc(=O)n3ccccc3n2)nc2ccsc2c1=O	7.36
COc1cc(C(=O)Nc2ccc3c(c2)ncn3C(C)(C)C)cc(OC)c1OC	10.3
Cc1cccc(-n2ncc3c(N4CCCc5ccccc54)ncnc32)c1	-7.58
O=C(/C(N=Nc1cccc(C(F)(F)F)c1)=C(/O)c1cccs1)C(F)(F)F	4.56
CCOc1ccc2[nH]c(=O)c(C(c3nnnn3CC3CCCO3)N3CCc4ccccc4C3)cc2c1 (stereo not shown)	8.33
Fc1ccc(Cn2nnnc2C(c2ccc(F)cc2)N2CC=C(c3ccc(F)cc3)CC2)cc1 (stereo not shown)	5.85
CC(C)(C)c1ccc(C(=O)NCC(=O)NCc2ccccn2)cc1	5.51
COc1ccc(-c2csc3nc(C)nc(N4CCCCC4)c23)cc1OC	5.05
COc1ccc(N2CCN(CC(=O)Nc3ccc(C)c(C)c3)CC2)cc1	3.67
CCOC(=O)c1cc(CC)sc1NC(=O)CCC(=O)O	18.4
CCCOCC(O)COc1ccccc1C(=O)N1CCOCC1 (stereo not shown)	8.61
CCCCN(C)S(=O)(=O)c1ccc(C(=O)Nc2nnc(-c3ccco3)o2)cc1	10.8
COC(=O)CNC(=O)COC(=O)/C=C/c1ccccc1[N+](=O)[O-]	2.59
NNC(=O)c1ccc(COCC(F)(F)F)cc1	14.2
